In PubChem BioAssay (NCI):
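These data come from cells grown in 96-well plates and exposed to compound for 48 hours at five concentrations. Here, GI50 denotes the concentration required for 50% inhibition of growth.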 Certain results were filed several times, with different values. This list holds those alone. The source may hold further records. For part of these data: Records of one sample usually come from different ranges of test concentrations, not given here; a value can be the end of its range.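 TGI marks complete inhibition of growth.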 What stands in brackets tells the records apart. A, B and so on number the origins entry by entry. For part of these data: The records of an entry repeat one measurement across runs, samples, wells, individuals or studies.

Columns and labels:
Experiment in all cases: NCI tumour cell line growth inhibition, 48 h
ACHN renal = test system: ACHN renal
OVCAR-4 ovarian = test system: OVCAR-4 ovarian
SW-620 colon = test system: SW-620 colon
HOP-18 NSCLC = test system: HOP-18 NSCLC
NCI-H23 lung = test system: NCI-H23 lung
A498 renal = test system: A498 renal
TK-10 renal = test system: TK-10 renal
SK-MEL-28 melanoma = test system: SK-MEL-28 melanoma
SF-539 CNS = test system: SF-539 CNS
MCF7 breast = test system: MCF7 breast
IGROV1 ovarian = test system: IGROV1 ovarian
SN12C renal = test system: SN12C renal
SK-OV-3 ovarian = test system: SK-OV-3 ovarian
EKVX NSCLC = test system: EKVX NSCLC
OVCAR-3 ovarian = test system: OVCAR-3 ovarian
RPMI-8226 leukemia = test system: RPMI-8226 leukemia
SF-295 CNS = test system: SF-295 CNS
MALME-3M melanoma = test system: MALME-3M melanoma
UACC-62 melanoma = test system: UACC-62 melanoma
K-562 leukemia = test system: K-562 leukemia
KM20L2 colon = test system: KM20L2 colon
CAKI-1 renal = test system: CAKI-1 renal
SR leukemia = test system: SR leukemia
SNB-78 CNS = test system: SNB-78 CNS
M19-MEL melanoma = test system: M19-MEL melanoma
HOP-92 NSCLC = test system: HOP-92 NSCLC
SF-268 CNS = test system: SF-268 CNS
SNB-19 CNS = test system: SNB-19 CNS
MDA-MB-435 = test system: MDA-MB-435
LOX IMVI melanoma = test system: LOX IMVI melanoma
OVCAR-5 ovarian = test system: OVCAR-5 ovarian
CCRF-CEM leukemia = test system: CCRF-CEM leukemia
UO-31 renal = test system: UO-31 renal
KM12 colon = test system: KM12 colon
HOP-62 NSCLC = test system: HOP-62 NSCLC
HCT-116 colon = test system: HCT-116 colon
SNB-75 CNS = test system: SNB-75 CNS
UACC-257 melanoma = test system: UACC-257 melanoma
NCI-H522 lung = test system: NCI-H522 lung
NCI-H460 lung = test system: NCI-H460 lung
DU-145 prostate = test system: DU-145 prostate
HT29 colon = test system: HT29 colon
NCI-H226 lung = test system: NCI-H226 lung
OVCAR-8 ovarian = test system: OVCAR-8 ovarian
T-47D breast = test system: T-47D breast
786-0 renal = test system: 786-0 renal
HCT-15 colon = test system: HCT-15 colon
RXF 393 renal = test system: RXF 393 renal
P388 leukemia = test system: P388 leukemia
COLO 205 colon = test system: COLO 205 colon
U251 CNS = test system: U251 CNS
SK-MEL-5 melanoma = test system: SK-MEL-5 melanoma
MOLT-4 leukemia = test system: MOLT-4 leukemia
DMS 273 small cell lung = test system: DMS 273 small cell lung
HCC-2998 colon = test system: HCC-2998 colon
HL-60(TB) leukemia = test system: HL-60(TB) leukemia
A549 NSCLC = test system: A549 NSCLC
SK-MEL-2 melanoma = test system: SK-MEL-2 melanoma

In the case of CCCCCCC(O)C(O)CCC(O)C1CCC(CCCCC(O)CC2=CC(C)OC2=O)O1 (stereo not drawn), the TGI (ACHN renal) is reported as 5.83 µM and 77.1 µM.
CSC1SCC2C(=O)N(C)C(C(C)C)C(=O)OCC(NC(=O)c3cnc4ccccc4n3)C(=O)NC(C)C(=O)N(C)C1C(=O)N(C)C(C(C)C)C(=O)OCC(NC(=O)c1cnc3ccccc3n1)C(=O)NC(C)C(=O)N2C (stereo not drawn) was tested, and the TGI (OVCAR-4 ovarian) was 0.507, 8.73, 8.89, 40 nM, the TGI (SW-620 colon) was 2.92 µM [sample A] and 24 nM, 1.41 µM, 1.73 µM [sample B] and the TGI (HOP-18 NSCLC) was 0.437 nM and 379 nM. For the same molecule, the TGI (NCI-H23 lung) was < 1 nM [sample A, 1 test] and 0.0776 nM [sample B, mean of 4 tests] and 2.02 nM [sample B, mean of 6 tests] and 27.3 nM [sample B, mean of 9 tests], the TGI (A498 renal) was < 1 nM [sample A] and 0.48 nM, 3.66 nM, 22.2 nM [sample B] and the TGI (TK-10 renal) was 1.4 nM [sample A] and 14.4 nM, 286 nM [sample B]. For the same molecule, the TGI (SK-MEL-28 melanoma) was 1.2 nM [sample A, mean of 2 tests] and 1.19 nM [sample B, mean of 4 tests] and 0.00792 nM [sample B, mean of 5 tests], the TGI (SF-539 CNS) was < 1 nM [sample A, mean of 2 tests] and 2.57 nM [sample B, mean of 4 tests] and 0.0817 nM [sample B, mean of 5 tests] and the TGI (MCF7 breast) was 658 nM and 35 µM. For the same molecule, the TGI (IGROV1 ovarian) was > 10 µM [sample A] and 59.7 nM, 2.89 µM, 254 nM [sample B], the TGI (SN12C renal) was 59 nM [sample A] and 14.1 nM, 940 nM, 5.13 µM [sample B] and the TGI (SK-OV-3 ovarian) was > 10 µM [sample A] and 44.4 nM, 1.03 µM, 4.55 µM [sample B]. The TGI (EKVX NSCLC) was 2.04 nM [sample A] and 0.694, 32.4, 29.6, 24.3 nM [sample B], the TGI (OVCAR-3 ovarian) was < 1 nM [sample A] and 0.00672 nM, 3.46 nM, 58.1 nM [sample B] and the TGI (RPMI-8226 leukemia) was < 1 nM [sample A] and 0.3, 12.4, 714, 944 nM [sample B]. For the same molecule, the TGI (SF-295 CNS) was 1.45 nM [sample A] and 0.863, 16.7, 21.7, 86.9 nM [sample B], the TGI (MALME-3M melanoma) was < 1 nM [sample A, 1 test] and 0.000859 nM [sample B, mean of 3 tests] and 1.65 nM [sample B, mean of 4 tests] and the TGI (UACC-62 melanoma) was 1.99 nM [sample A, mean of 2 tests] and 0.00195 nM [sample B, mean of 4 tests] and 0.642 nM [sample B, mean of 5 tests]. For the same molecule, the TGI (K-562 leukemia) was > 2.2 µM [sample A, mean of 2 tests] and 311 nM [sample B, mean of 3 tests] and 0.197 nM, 40.3 nM [sample B, mean of 5 tests] and 2.73 µM [sample B, mean of 9 tests], the TGI (KM20L2 colon) was 0.315 nM, 264 nM, < 20.3 nM and the TGI (CAKI-1 renal) was 1.97 nM [sample A] and 0.00749, 14.9, 46.5, 54.5 nM [sample B]. The TGI (SR leukemia) was 5.32 nM and 3.11 µM, the TGI (SNB-78 CNS) was 37.4 nM and 6.25 µM and the GI50 (M19-MEL melanoma) was 0.00741 nM, < 17.5 nM [mean of 4 tests] and 7.5 nM [mean of 7 tests]. For the same molecule, the TGI (M19-MEL melanoma) was 0.0174 nM, < 32.4 nM [mean of 4 tests] and 8.54 nM [mean of 7 tests], the TGI (HOP-92 NSCLC) was 4.66 nM [sample A, mean of 2 tests] and 1.49 nM [sample B, mean of 4 tests] and 0.00612 nM [sample B, mean of 5 tests] and < 40.2 nM [sample B, mean of 6 tests] and the TGI (SF-268 CNS) was 0.176 nM, 20.3 nM, 164 nM, < 11.2 nM. The TGI (SNB-19 CNS) was > 5.37 µM [sample A] and 49.6 nM, 1.39 µM, 2.43 µM [sample B], the TGI (MDA-MB-435) was < 1 nM [sample A] and 10 nM [sample B] and the TGI (LOX IMVI melanoma) was 90.9 nM [sample A, mean of 2 tests] and 395 nM [sample B, mean of 12 tests] and 250 nM [sample B, mean of 3 tests] and 1.28 nM [sample B, mean of 4 tests]. For the same molecule, the TGI (OVCAR-5 ovarian) was < 1 nM [sample A] and 0.146 nM, 15.2 nM, 43.3 nM [sample B], the TGI (CCRF-CEM leukemia) was 3.39 nM [sample A] and 0.738, 26.9, 651, 213 nM [sample B] and the TGI (UO-31 renal) was > 10 µM [sample A] and 0.633 nM, 24.3 nM, 29.7 nM, < 13.1 nM [sample B]. The TGI (KM12 colon) was < 1 nM [sample A] and 4.81 nM, 78.4 nM, < 37 nM [sample B], the TGI (HOP-62 NSCLC) was 2.67 nM [sample A] and 0.0294 nM, < 17.6 nM, 21.6 nM [sample B] and the TGI (HCT-116 colon) was 22.3 nM, 6.8 µM, 2.54 µM. The TGI (SNB-75 CNS) was 3.06 nM [mean of 4 tests] and 0.0156 nM [mean of 5 tests], the TGI (UACC-257 melanoma) was < 1 nM [sample A, 1 test] and 0.0243 nM [sample B, mean of 4 tests] and 2.22 nM [sample B, mean of 5 tests] and the TGI (NCI-H522 lung) was > 10 µM [sample A, 1 test] and 0.00368 nM [sample B, mean of 5 tests] and 0.338 nM [sample B, mean of 6 tests]. For the same molecule, the TGI (NCI-H460 lung) was 11.1 nM, 111 nM, 3.56 µM, the TGI (DU-145 prostate) was 3.14 µM [sample A, 1 test] and > 100 µM [sample B, 1 test] and 1.77 µM [sample B, mean of 3 tests] and the TGI (HT29 colon) was 81.1 nM [sample A] and 0.112, 43.3, 750, 44.4 nM [sample B]. For the same molecule, the TGI (NCI-H226 lung) was 22.8 nM [sample A] and 0.00437 nM, 5.81 nM, 20.9 nM, < 33.9 nM [sample B], the TGI (OVCAR-8 ovarian) was 2.17 nM [sample A] and 0.425, 24.1, 111, 175 nM [sample B] and the TGI (T-47D breast) was > 10 µM [sample A] and 11.6 nM, 495 nM, 58 µM [sample B]. The TGI (786-0 renal) was > 3.31 µM [sample A, mean of 2 tests] and 1.76 µM [sample B, 1 test] and 42.7 nM, 18.4 µM [sample B, mean of 3 tests], the TGI (HCT-15 colon) was > 3.4 µM [sample A] and 54.7 nM, 839 nM, 2.16 µM [sample B] and the TGI (ACHN renal) was < 1 nM [sample A, 1 test] and 27.1 nM, 923 nM [sample B, mean of 3 tests]. For the same molecule, the TGI (RXF 393 renal) was 0.0109 nM, 6.17 nM, 9.68 nM, the TGI (P388 leukemia) was 0.325 nM and 9.32 nM and the TGI (COLO 205 colon) was > 10 µM [sample A] and 0.0134 nM, 3.23 nM, 7.59 nM [sample B]. For the same molecule, the TGI (U251 CNS) was > 5.38 µM [sample A] and 724 nM, 154 nM [sample B], the TGI (SK-MEL-5 melanoma) was 0.032 nM, 2.22 nM, 75.4 nM and the TGI (MOLT-4 leukemia) was < 1 nM [sample A] and 0.125 nM, 11.9 nM, 131 nM, < 19 nM [sample B]. For the same molecule, the TGI (DMS 273 small cell lung) was 0.216 nM and 16.7 nM, the TGI (HCC-2998 colon) was < 1 nM [sample A] and 0.0114 nM, 5.54 nM, 16.9 nM [sample B] and the TGI (HL-60(TB) leukemia) was 1.32 nM [sample A] and 0.0242 nM, 8.91 nM, 26.7 nM [sample B]. The TGI (A549 NSCLC) was 4.52 nM [sample A] and 0.513 nM, 342 nM, 12.2 µM [sample B].
For CCC1(N)C(=O)OCc2c1cc1n(c2=O)Cc2cc3ccccc3nc2-1 (stereo not drawn), the TGI (CCRF-CEM leukemia) was > 100 µM [sample A] and 6.34 µM [sample B], the TGI (NCI-H460 lung) was 3.66 µM [sample A] and > 38.8 µM [sample B] and the TGI (HL-60(TB) leukemia) was 7.04 µM [sample A] and > 100 µM [sample B].
O=C(N[C@@H](Cc1ccccc1)B(O)O)[C@H](Cc1cccc2ccccc12)NC(=O)N1CCOCC1 was tested, and the TGI (SK-MEL-2 melanoma) was 4.97 nM and 50.4 nM.
